Test results published in the supplement of paper PMC12067230.
Single values of this set are uncertain.
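Note: [psi-pin-] Saccharomyces cerevisiae expressing SupN fusions, induced by 100 µM Cu2SO4, selected 7 d at 30 °C without adenine and uracil, scored by deep sequencing of output versus input.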

Test: amyloid nucleation score relative to library mode (yeast Sup35 reporter selection) (log enrichment difference); higher = more amyloid nucleation; sequences are the first 22 residues of the Bri2 peptide extended by up to 12 random residues
Details: random library (experiment): 1;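 active = nucleation score significantly above 0 at FDR 0.05; inactive = not significantly above 0 or absent from output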
For EASNCFAIRHFENKFAVETLICWQSGVFLSWGPK, the amyloid nucleation score was “inactive”.
For EASNCFAIRHFENKFAVETLICWTTRKGAVVRDL, the amyloid nucleation score was “inactive”.
In the case of EASNCFAIRHFENKFAVETLICGTCGSCLGDLMQ, the amyloid nucleation score is reported as 7.38.
In the case of EASNCFAIRHFENKFAVETLICGWSYLLVTRWLV, the amyloid nucleation score is reported as “inactive”.
With EASNCFAIRHFENKFAVETLICATEVT the amyloid nucleation score was 0.443.
In the case of EASNCFAIRHFENKFAVETLICEMAQKIWPFG, the amyloid nucleation score is reported as 3.72.
With EASNCFAIRHFENKFAVETLICCLD the amyloid nucleation score was “inactive”.
In the case of EASNCFAIRHFENKFAVETLICRARSYGRWAR, the amyloid nucleation score is reported as “inactive”.
Work on EASNCFAIRHFENKFAVETLICLGGCRTRDSVAG yielded an amyloid nucleation score of 2.6.
Work on EASNCFAIRHFENKFAVETLICAINLCYSYCRRA yielded an amyloid nucleation score of 2.44.
In the case of EASNCFAIRHFENKFAVETLICDVVNTDSLRVCL, the amyloid nucleation score is reported as 4.24.
EASNCFAIRHFENKFAVETLICCAASARSQTVGW gave an amyloid nucleation score of 7.51.
With EASNCFAIRHFENKFAVETLICYSGFVQDTVSVV the amyloid nucleation score was “inactive”.
For EASNCFAIRHFENKFAVETLICRLPYMWF, the amyloid nucleation score was “inactive”.
With EASNCFAIRHFENKFAVETLICAQSALMR the amyloid nucleation score was “inactive”.
In the case of EASNCFAIRHFENKFAVETLICLG, the amyloid nucleation score is reported as “inactive”.
EASNCFAIRHFENKFAVETLICLSLPMLGALGSE gave an amyloid nucleation score of 0.307.
Sequence EASNCFAIRHFENKFAVETLICGCASVSFKGRRV has an amyloid nucleation score of 5.82.
For EASNCFAIRHFENKFAVETLICMPDAS, the amyloid nucleation score was “inactive”.
For EASNCFAIRHFENKFAVETLICPLMESPI, the amyloid nucleation score was “inactive”.
For EASNCFAIRHFENKFAVETLICLRFCVSCSTFVM, the amyloid nucleation score was “inactive”.
Work on EASNCFAIRHFENKFAVETLICGCVKFTDTSWWS yielded an amyloid nucleation score of 3.89.
With EASNCFAIRHFENKFAVETLICDGLYR the amyloid nucleation score was “inactive”.
With EASNCFAIRHFENKFAVETLICYTFPVSVSSQ the amyloid nucleation score was “inactive”.
EASNCFAIRHFENKFAVETLICGGWSQGDGLR gave an amyloid nucleation score of 2.72.
In the case of EASNCFAIRHFENKFAVETLICGLRLNPKMGWEW, the amyloid nucleation score is reported as 3.4.
In the case of EASNCFAIRHFENKFAVETLICIRCEPELTLSRA, the amyloid nucleation score is reported as “inactive”.
For EASNCFAIRHFENKFAVETLICYCYRVYGAVVGE, the amyloid nucleation score was “inactive”.
With EASNCFAIRHFENKFAVETLICET the amyloid nucleation score was 0.552.
With EASNCFAIRHFENKFAVETLICIADKGYRINSAL the amyloid nucleation score was 1.45.
For EASNCFAIRHFENKFAVETLICNRGPRGRRTEVQ, the amyloid nucleation score was “inactive”.
For EASNCFAIRHFENKFAVETLICDRYGRQPTARWM, the amyloid nucleation score was -0.782.
With EASNCFAIRHFENKFAVETLICLSSYVLGWHHRD the amyloid nucleation score was 2.48.
With EASNCFAIRHFENKFAVETLICVVMTVTWLSPVM the amyloid nucleation score was “inactive”.
With EASNCFAIRHFENKFAVETLICNWRIALYILPLR the amyloid nucleation score was “inactive”.
With EASNCFAIRHFENKFAVETLICCRFRRACTFFDF the amyloid nucleation score was “inactive”.
With EASNCFAIRHFENKFAVETLICTMSLLPRRATPV the amyloid nucleation score was “inactive”.
For EASNCFAIRHFENKFAVETLICHRCNYTPLSIRT, the amyloid nucleation score was “inactive”.
For EASNCFAIRHFENKFAVETLICGETVNQVLCEAR, the amyloid nucleation score was “inactive”.
For EASNCFAIRHFENKFAVETLICGPEARSQSSVPQ, the amyloid nucleation score was “inactive”.
With EASNCFAIRHFENKFAVETLICLDVAAYREEVPG the amyloid nucleation score was “inactive”.
EASNCFAIRHFENKFAVETLICNLHTN gave an amyloid nucleation score of 5.17.
With EASNCFAIRHFENKFAVETLICGSSDGSVRWEHS the amyloid nucleation score was “inactive”.
In the case of EASNCFAIRHFENKFAVETLICRFIHAVEFEDLT, the amyloid nucleation score is reported as “inactive”.
In the case of EASNCFAIRHFENKFAVETLICGRGTTPLCVTSW, the amyloid nucleation score is reported as “inactive”.
With EASNCFAIRHFENKFAVETLICLVALHHVLYIRR the amyloid nucleation score was “inactive”.
In the case of EASNCFAIRHFENKFAVETLICGWGYLIMWCLPY, the amyloid nucleation score is reported as “inactive”.
In the case of EASNCFAIRHFENKFAVETLICHSVWMVSVLQFE, the amyloid nucleation score is reported as “inactive”.
For EASNCFAIRHFENKFAVETLICLKSYCHRWTVRM, the amyloid nucleation score was “inactive”.

Same assay, conditions: random library (experiment): 2
In the case of EASNCFAIRHFENKFAVETLICMFCIGLASPLWL, the amyloid nucleation score is reported as “inactive”.
With EASNCFAIRHFENKFAVETLICFMVMVRNRKPCC the amyloid nucleation score was “inactive”.
For EASNCFAIRHFENKFAVETLICALCFVYASMVGG, the amyloid nucleation score was “inactive”.
For EASNCFAIRHFENKFAVETLICPPMGRWNTGRLA, the amyloid nucleation score was “inactive”.
In the case of EASNCFAIRHFENKFAVETLICYHGLLADSVLRR, the amyloid nucleation score is reported as 3.77.
In the case of EASNCFAIRHFENKFAVETLICYGVFGNGFRAIG, the amyloid nucleation score is reported as “inactive”.
For EASNCFAIRHFENKFAVETLICEEGMGSLTGGIS, the amyloid nucleation score was “inactive”.
EASNCFAIRHFENKFAVETLICIWATCSSGECLW showed an amyloid nucleation score of 2.98.
EASNCFAIRHFENKFAVETLICEIKCTPFTLHYD showed an amyloid nucleation score of 2.73.
For EASNCFAIRHFENKFAVETLICIFEWQ, the amyloid nucleation score was “inactive”.
